Measurements taken from the supplement of paper PMC11417369.
Some of the results follow.

Test system: PfSIP2 AP2 domain 1 (GST-tagged)
Test: gcPBM binding intensity (ln(normalized median fluorescence intensity)); higher = stronger DNA binding
How it was run: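 Plasmodium falciparum DNA-binding domains carrying a GST tag were expressed in E. coli and applied for 1 h, at about 25 μg on average, to an Agilent 4 × 180k array. The array held primer-extended double-stranded 36-bp intergenic genomic probes together with negative controls, and binding took place in 1× PBS with 1% milk, 0.2 mg/ml BSA, 0.5% salmon testes DNA and 0.03% Triton X-100. An Alexa488 anti-GST antibody detected bound protein, and the array was scanned at 488 nm. Binding intensity is taken as the highest Masliner-normalised natural-log median intensity across replicate spots of either probe orientation.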

| Sequence | gcPBM binding intensity (ln) |
| --- | --- |
| ATTGAATATGTAAATGCACACCAAAAAAAAAAAAAA [CACACA_site9189] | 7.29 |
| CGTATTTATAGAATTACACACCATATTGTAATTATT [CACACA_site7722] | 6.95 |
| GTGTTTTTATTATTTTGTACACATATATTTAATATT [XGTACX_site2109] | 8.26 |
| TTTTTTTTGTAATACGCATGCTAAAAATATTTATAA [TGCATGCA_site656] | 7.07 |
| ATTTAAATAAGATATACACACAAGTAGAAGACTATG [CACACA_site806] | 7.06 |
| TTTTCGATGTTGGTAGGAAGTTTGGTACACGTAGTA [TGCATGCA_negctrl_site145] | 7.14 |
| AAAATTCATATATACACACACGCACATATATATATA [CACACA_site90] | 9.47 |
| GAATGTCTAATTTTGATGCACACTTTTGTGCAATTA [CACACA_site2902] | 8.6 |
| TTATATTATTCGTGTGTGCACGATATTTCATAATTG [GTGCAC_site9767] | 8.96 |
| CAAAAAATTCAACACACACACACACCGATAAATAAA [CACACA_site8330] | 7.01 |
| TTGTCCCTATAAGGGGAACACACATAAATGAATATA [CACACA_site8250] | 6.77 |
| AAAACTATTTGTAAAAGTACATAATAAATAAATAAA [XGTACX_site7922] | 6.87 |
| ATAATGTTTTATAATACACACATTATGTATATAAAT [CACACA_site4077] | 7.04 |
| CTATTATTTTTAAATTGTACTATAACAAAATGTATA [XGTACX_site3916] | 7.15 |
| AAATAAATCTATAATACACACAAAAATATAAAATGC [CACACA_site7700] | 7.23 |
| TTTATATTTATATAAATATAATATATATGAATTATA [XGTACX_negctrl_site466] | 6.99 |
| ATATATATGTTTTATAGTACACACATAAATGGACAT [XGTACX_site4538] | 7.32 |
| TTAAGAAATAACAATGCACACATTTAGGTCTTTTAT [CACACA_site3285] | 6.98 |
| ATAACTTGTATATATACACACACACCCTTTCTTTTT [CACACA_site8600] | 7.08 |
| TATATTATATTATACATACACACCCATATAATATGT [CACACA_site869] | 7.21 |
| TTAGATATGTGTAAGGGTACAAAATACTTTACATTT [XGTACX_site8204] | 6.87 |
| CTTCAATATATTCTTACACACTTAAAAAAAAAAATA [CACACA_site4287] | 7.28 |

| Sequence | gcPBM binding intensity (ln) |
| --- | --- |
| TAAGTATACGCATACACACACACACCCAAAAAAAAA [CACACA_site425] | 6.96 |
| CATTCAATTGAAAAATGTACAAAAATAAACATATGC [XGTACX_site1663] | 6.98 |
| TAAACATACCTATACACACACACACGCACACGCACA [CACACA_site6372] | 8.48 |
| ATAATATATGAGCAATGTACATATTTCTCATTGCAC [XGTACX_site2253] | 8.12 |
| TTTCTATATTGGCATACATGCAAGAACGAAAAGATT [TGCATGCA_site117] | 7.09 |
| TAAAAATTGCACAGAAGTACAGTATAAATATATATA [XGTACX_site3421] | 7.39 |
| GTTCCAGGCATTCGTGCGCACAAATAGAAACAATTA [GTGCAC_site9824] | 9.34 |
| TTGTGAAACATCAAGAAAAAGAAATAATAAAAAGAA [GTGCAC_negctrl_site38] | 7.11 |
| GTTGAACATATATGCACACACATAAAATAAAAAAAA [CACACA_site2413] | 7.35 |
| TTATATTAATATATATGTACATATATTTTTTTTATA [XGTACX_site6981] | 6.78 |
| AAAAGGTATCCACATACGCACACCAAAAAAAAAAAT [CACACA_site347] | 7.28 |
| TCTTTTTTTTTTTTTTTTTTTTTTTATTTATTCATA [CACACA_negctrl_site1827] | 6.85 |
| ATACAACAATGTGAATTATATATGGATGGAGAATGA [GTGCAC_negctrl_site148] | 7.1 |
| ACGTAAGCGAATAAAAGTACATATATTAAAAAAAAA [XGTACX_site4458] | 6.9 |
| TTCTTAAGGAACGAACGTACAGAATAAAAAGTAAAA [XGTACX_site4294] | 7.05 |
| TTTAAAACCCTAAAAAAAAAAAAAAAAAAAAAAAAA [CACACA_negctrl_site1212] | 6.9 |
| GTTTGTATAGGTTCATGTACAAAAAAAAAAAAAAAA [XGTACX_site537] | 7.07 |
| ATGCATAAAAGAAATACACACATAAATATGTAAATA [CACACA_site7087] | 6.82 |
| ATTCATATGTGACACACACACACACGCATAAAAAAA [CACACA_site7515] | 7.28 |
| TTAAAACATATTTTGAATTAATATATTTTAATATTA [XGTACX_negctrl_site148] | 6.6 |
| TAGCGTACATTTCATTGTAATCATAAAAAATAAAGA [CACACA_negctrl_site447] | 7.03 |
| ACAAAAATATATATATGTACATATATCATCATAATA [XGTACX_site5850] | 6.95 |
